Data on two molecules can be found in US20200207868A1 (UNIVERSITY OF SASKATCHEWAN, published 2020).

Assay [1] concerns the target HER3 (as used in the biolayer interferometry of Example 2) (UniProt P21860 partial chain, limits assumed). In words: BLI. In general terms: Biolayer interferometry detects binding as a change in optical thickness at a sensor tip.
In assay [2] the target is T1, recombinant human HER3-Fc chimera protein (R&D Systems) (human, UniProt P21860 partial chain).
T1 construct: extracellular domain; Bought from R&D Systems; also called recombinant human HER3 extracellular domain; recombinant HER3; not shown: Fc part of the purchased chimera
The experiment in a line: BLI (Octet Red), antibody on AR2G sensor, HER3-Fc 10-263 nM, 1:1 fit. How it is done: Binding kinetics were measured using an Octet Red instrument (ForteBio, Menlo Park, Calif.), following the manufacturer's protocol. Binding assays were performed in 96-well microtiter plates at 30° C. with sample plate orbital motion agitation at 1000 rpm. All washes, dilutions, and measurements were performed in phosphate buffered saline (PBS), pH 7.4. The IgG and antibody fragments were immobilized on amine-reactive second generation (AR2G) sensors using the manufacturer's protocol at pH 5 followed by quenching with 1 M ethanolamine, pH 8.5. […] Binding was monitored by placing sensors into wells for 5 min, followed by dissociation in PBS for 10 min. KD, kON, and kOFF were determined with ForteBio Data Analysis software v7.1.0.33 through locally fitting the processed data using a 1:1 binding model.

The target of assay [3] is T1, recombinant human HER3-Fc chimera …. The experiment in a line: BLI, IRDye800CW-labeled antibody.

B1: anti-HER3 scFv-Fc (Fc fusion)
chain: SDIQMTQSPSSLSASVGDRVTITCRASQGISNYLAWYQQKPGKAPKLLIYAASSLQSGVPSRFSGSRSGTDFTLTISSLQPEDFATYYCQQYGWLPLTFGQGTKVEIKGGGGSGGGGSGGGGSEISEVQLVESGGGLVQPGGSLRLSCAASGFTFSSYGMHWVRQAPGKGLEWVAVISYDGSNKYYADSVKGRFTISRDNSKNTLYLQMNSLRAEDTAVYYCARTDPYSLGGYYFDYWGQGTLVTVSS[human IgG1 Fc not given here]
B1: in assay [1], the Kd (in general, the constant that tells how readily two partners part at equilibrium) was 0.57 nM; the koff – broadly, the rate constant with which the complex falls apart – stood at 4.6e-05 s⁻¹; the kon (in general, the rate constant with which the complex forms) came out at 77800 M⁻¹ s⁻¹. Moreover, in assay [2], the Kd came out at 0.6 nM, the koff worked out at 5e-05 s⁻¹ and the association rate constant (kon) came out at 78000 M⁻¹ s⁻¹.

B2: anti-HER3 scFv-Fc labeled with IRDye800CW (Fc fusion)
chain: B1 chain
notes: also called IRDye800CW-labeled scFv-Fc
On to B2, for which the Kd in assay [3] amounted to 0.9 nM.
